The source of these data is the supplement of paper PMC12067093, “Discovery and optimisation of a covalent ligand for TRIM25 and its application to targeted protein ubiquitination” (Chemical Science, 2025).

Compound in this assay: Cc1cc(ccc1-c1ccccc1)C(=O)N1CCCN(CC1)C(=O)CCl [compound 10]
Nature of the assay: probe-labelled cysteine peptide fold change vs DMSO (competition) (log2 fold change); higher = less target engagement (more negative = stronger competition). As to conditions: THP-1, incubation time: 4 h.

About 21,000 targets were measured; listed, in parts, are those with the largest changes and a random draw of the rest.
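Also: competitive profiling in live THP-1 cells: cysteine peptides tagged with an iodoacetamide desthiobiotin (IA-DTB) probe, intensity after compound treatment relative to DMSO-treated cells.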

Sequence of UniProt Q86YB8 (Q86YB8 whole entry, looked up): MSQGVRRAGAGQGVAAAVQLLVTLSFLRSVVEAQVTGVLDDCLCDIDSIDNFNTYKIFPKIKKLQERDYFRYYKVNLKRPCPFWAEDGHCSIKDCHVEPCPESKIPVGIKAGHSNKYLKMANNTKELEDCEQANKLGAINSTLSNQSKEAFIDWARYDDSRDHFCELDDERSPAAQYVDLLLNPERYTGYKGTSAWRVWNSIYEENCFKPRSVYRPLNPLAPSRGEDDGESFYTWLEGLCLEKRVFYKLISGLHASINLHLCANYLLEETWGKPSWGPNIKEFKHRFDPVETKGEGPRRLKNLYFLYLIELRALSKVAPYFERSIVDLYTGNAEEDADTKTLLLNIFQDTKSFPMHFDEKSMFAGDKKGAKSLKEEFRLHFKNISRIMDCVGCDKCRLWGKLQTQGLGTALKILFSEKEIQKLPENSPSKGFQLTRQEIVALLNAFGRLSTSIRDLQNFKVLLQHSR
Sequence of UniProt Q15910 (Q15910 whole entry, looked up): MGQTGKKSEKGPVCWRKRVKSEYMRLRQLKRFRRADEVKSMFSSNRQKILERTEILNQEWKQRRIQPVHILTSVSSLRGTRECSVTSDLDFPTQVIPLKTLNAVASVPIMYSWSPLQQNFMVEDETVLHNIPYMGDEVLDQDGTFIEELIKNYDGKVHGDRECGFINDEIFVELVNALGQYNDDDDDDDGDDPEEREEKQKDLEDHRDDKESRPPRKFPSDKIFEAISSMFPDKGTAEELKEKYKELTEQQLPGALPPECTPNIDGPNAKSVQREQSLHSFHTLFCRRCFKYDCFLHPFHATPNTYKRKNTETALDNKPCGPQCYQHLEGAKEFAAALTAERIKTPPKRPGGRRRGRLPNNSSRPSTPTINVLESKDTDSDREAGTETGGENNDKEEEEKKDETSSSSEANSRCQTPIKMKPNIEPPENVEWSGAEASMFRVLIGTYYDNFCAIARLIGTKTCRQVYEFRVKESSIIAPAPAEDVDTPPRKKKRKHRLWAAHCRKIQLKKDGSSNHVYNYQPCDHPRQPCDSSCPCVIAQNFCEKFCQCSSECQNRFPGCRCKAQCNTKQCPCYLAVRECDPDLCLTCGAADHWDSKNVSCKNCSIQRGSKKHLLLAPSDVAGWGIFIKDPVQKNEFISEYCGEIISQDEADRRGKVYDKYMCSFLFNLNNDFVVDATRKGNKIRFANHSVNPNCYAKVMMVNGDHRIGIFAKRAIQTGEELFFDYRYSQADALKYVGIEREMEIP
Sequence of UniProt Q6IA86 (Q6IA86 whole entry, looked up): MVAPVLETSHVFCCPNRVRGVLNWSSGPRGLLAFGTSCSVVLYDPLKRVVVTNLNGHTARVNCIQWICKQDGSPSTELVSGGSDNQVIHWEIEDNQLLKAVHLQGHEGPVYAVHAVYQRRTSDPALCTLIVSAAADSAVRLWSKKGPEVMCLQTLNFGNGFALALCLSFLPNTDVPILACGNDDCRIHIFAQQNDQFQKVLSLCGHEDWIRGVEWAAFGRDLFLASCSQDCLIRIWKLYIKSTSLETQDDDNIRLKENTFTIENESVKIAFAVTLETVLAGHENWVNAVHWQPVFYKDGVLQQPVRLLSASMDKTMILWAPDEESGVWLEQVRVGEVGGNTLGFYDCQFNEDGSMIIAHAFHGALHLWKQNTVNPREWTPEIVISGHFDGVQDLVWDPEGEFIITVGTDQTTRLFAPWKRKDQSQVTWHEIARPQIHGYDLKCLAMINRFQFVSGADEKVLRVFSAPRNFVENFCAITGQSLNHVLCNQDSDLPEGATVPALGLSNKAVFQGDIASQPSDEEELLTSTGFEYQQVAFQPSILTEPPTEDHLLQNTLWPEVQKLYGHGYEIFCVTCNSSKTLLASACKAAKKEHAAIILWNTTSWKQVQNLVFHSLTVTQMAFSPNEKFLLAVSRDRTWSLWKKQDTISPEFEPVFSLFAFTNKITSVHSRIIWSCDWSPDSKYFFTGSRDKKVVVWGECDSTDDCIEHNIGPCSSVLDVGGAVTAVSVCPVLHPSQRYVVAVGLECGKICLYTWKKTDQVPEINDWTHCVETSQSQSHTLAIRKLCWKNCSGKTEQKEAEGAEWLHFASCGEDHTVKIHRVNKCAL
Sequence of UniProt Q9NR50 (Q9NR50 whole entry, looked up): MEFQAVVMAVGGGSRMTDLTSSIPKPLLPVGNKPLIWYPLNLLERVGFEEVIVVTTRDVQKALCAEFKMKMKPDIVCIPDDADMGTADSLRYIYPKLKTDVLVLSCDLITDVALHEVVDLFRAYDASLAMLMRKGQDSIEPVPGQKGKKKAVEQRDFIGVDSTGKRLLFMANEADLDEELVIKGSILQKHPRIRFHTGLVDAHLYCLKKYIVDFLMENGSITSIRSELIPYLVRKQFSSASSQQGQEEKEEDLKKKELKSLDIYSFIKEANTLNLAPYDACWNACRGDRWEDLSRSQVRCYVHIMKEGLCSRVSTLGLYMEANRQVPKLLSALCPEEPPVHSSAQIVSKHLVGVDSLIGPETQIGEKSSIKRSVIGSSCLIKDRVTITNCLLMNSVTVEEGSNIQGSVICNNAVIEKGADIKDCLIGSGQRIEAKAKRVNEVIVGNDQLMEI
Sequence of UniProt Q9Y282 (Q9Y282 whole entry, looked up): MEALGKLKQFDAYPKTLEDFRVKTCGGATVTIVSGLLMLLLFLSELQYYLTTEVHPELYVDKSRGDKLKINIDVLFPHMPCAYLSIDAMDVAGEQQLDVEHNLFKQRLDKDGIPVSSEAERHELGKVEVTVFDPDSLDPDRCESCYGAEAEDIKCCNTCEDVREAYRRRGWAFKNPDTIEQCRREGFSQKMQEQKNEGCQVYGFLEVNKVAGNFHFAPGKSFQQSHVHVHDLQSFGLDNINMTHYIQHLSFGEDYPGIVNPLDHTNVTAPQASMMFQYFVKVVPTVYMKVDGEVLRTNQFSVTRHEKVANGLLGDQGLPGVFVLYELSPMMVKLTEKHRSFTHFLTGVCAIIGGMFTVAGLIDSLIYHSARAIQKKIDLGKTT
Sequence of UniProt Q6P1R4 (Q6P1R4 whole entry, looked up): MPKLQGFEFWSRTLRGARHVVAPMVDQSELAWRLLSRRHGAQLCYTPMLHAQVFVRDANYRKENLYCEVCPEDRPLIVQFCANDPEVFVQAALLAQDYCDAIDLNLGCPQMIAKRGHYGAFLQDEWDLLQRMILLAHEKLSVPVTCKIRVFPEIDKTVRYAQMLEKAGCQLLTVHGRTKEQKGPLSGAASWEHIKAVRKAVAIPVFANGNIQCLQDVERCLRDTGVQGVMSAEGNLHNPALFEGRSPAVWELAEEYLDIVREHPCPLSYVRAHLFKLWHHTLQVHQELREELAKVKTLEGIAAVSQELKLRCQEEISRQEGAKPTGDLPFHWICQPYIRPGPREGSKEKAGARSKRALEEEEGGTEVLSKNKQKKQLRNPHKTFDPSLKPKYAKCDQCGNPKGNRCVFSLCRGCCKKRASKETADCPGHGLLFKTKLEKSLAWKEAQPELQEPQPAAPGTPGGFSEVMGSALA
Sequence of UniProt Q9UK99 (Q9UK99 whole entry, looked up): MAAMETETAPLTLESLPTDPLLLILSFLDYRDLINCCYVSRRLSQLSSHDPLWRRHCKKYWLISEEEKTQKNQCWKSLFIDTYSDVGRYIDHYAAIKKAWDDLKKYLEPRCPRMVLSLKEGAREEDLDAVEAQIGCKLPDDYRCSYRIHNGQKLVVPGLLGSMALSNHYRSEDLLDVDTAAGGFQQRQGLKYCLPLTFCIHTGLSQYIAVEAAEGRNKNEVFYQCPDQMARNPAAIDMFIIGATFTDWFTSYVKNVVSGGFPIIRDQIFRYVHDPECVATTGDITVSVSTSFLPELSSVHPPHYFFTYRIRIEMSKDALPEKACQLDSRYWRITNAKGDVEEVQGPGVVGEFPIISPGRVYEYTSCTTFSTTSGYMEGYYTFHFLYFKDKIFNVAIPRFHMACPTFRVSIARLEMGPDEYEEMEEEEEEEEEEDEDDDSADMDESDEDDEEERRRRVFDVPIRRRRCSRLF
Sequence of UniProt Q13347 (Q13347 whole entry, looked up): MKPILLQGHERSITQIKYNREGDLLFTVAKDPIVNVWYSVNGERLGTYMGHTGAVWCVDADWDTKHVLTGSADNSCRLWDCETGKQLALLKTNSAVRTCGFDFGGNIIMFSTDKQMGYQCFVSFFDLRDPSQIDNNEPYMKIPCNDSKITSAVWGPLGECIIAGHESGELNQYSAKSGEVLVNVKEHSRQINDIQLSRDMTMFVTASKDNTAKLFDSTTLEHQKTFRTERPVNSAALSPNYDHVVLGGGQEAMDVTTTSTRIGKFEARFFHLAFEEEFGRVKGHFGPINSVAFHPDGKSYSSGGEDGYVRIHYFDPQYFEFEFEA
Sequence of UniProt P34913 (P34913 whole entry, looked up): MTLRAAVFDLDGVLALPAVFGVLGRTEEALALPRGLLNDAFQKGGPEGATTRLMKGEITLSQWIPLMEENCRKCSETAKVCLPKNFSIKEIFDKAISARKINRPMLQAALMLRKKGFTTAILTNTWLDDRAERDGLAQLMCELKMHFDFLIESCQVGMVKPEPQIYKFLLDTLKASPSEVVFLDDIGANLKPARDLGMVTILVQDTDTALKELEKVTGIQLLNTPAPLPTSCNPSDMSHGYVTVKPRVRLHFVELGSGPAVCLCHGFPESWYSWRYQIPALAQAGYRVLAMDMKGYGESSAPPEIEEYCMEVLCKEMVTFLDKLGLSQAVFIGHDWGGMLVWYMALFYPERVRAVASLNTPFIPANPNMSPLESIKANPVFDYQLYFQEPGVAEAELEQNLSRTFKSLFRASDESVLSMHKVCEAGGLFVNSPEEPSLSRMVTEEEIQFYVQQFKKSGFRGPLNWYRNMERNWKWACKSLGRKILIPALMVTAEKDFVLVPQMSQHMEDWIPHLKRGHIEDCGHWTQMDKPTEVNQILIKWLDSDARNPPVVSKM

As for “FBXO3_Q9UK99_324_ACQLDSR (UniProt Q9UK99)”, the “probe-labelled cysteine peptide fold change” value runs as follows: (10 µM) -0.108; (50 µM) -0.312.
On the same counts, the results for “EXOC5_O00471_675_QVCSGEQLANLDK (UniProt O00471)” are 0.191 and 0.123.
Turning to “EZH2_Q15910_695_FANHSVNPNCYAK (UniProt Q15910)”, the “probe-labelled cysteine peptide fold change” value was 0.0117 (10 µM) and -0.0181 (50 µM).
The matching figures for “EPRS_P07814_856_INEAVECLLSLK (UniProt P07814)”: -0.0271 and -0.0672.
The matching figures for “ERGIC3_Q9Y282_145_VEVTVFDPDSLDPDRCESCYGAEAEDIK (UniProt Q9Y282)”: 0.46 and 0.61.
On the same counts, the results for “FANCA_O15360_69_SHQDLNALLLEVEGPLCK (UniProt O15360)” are -0.401 and -0.59.
As for “EPHX2_P34913_314_GYGESSAPPEIEEYCMEVLCK (UniProt P34913)”, the “probe-labelled cysteine peptide fold change” value came to 0.317 (10 µM) and 0.146 (50 µM).
On the same counts, the results for “DOK1_Q99704_115_SHLLAADAPSSAAWVQTLCR (UniProt Q99704)” are -0.149 and -0.373.
On the same counts, the results for “EIF3I_Q13347_120_QMGYQCFVSFFDLRDPSQIDNNEPYMK (UniProt Q13347)” are 0.106 and -0.0857.
On the same counts, the results for “ERO1B_Q86YB8_207_VWNSIYEENCFKPR (UniProt Q86YB8)” are -0.0491 and 0.025.
In the case of “EXOC5_O00471_254_NDIFEDAGILCQR (UniProt O00471)”, the “probe-labelled cysteine peptide fold change” value (10 µM) was found to be 0.0908 and the “probe-labelled cysteine peptide fold change” value (50 µM) is 0.214.
On the same counts, the results for “DUS1L_Q6P1R4_146_LSVPVTCK (UniProt Q6P1R4)” are 0.115 and -0.154.
The matching figures for “EIF2B3_Q9NR50_424_DCLIGSGQR (UniProt Q9NR50)”: -0.0396 and -0.0614.
On to “ELP2_Q6IA86_38_GLLAFGTSCSVVLYDPLKR (UniProt Q6IA86)”, for which the “probe-labelled cysteine peptide fold change” value runs as follows: (10 µM) -0.0431; (50 µM) -0.0923.
